# Experimental data from article PMC4336329 (PLoS ONE, 2015).
# The whole screen tested about 310,000 compounds, of which about 14,000 (4.5%) showed an effect of 50% or more. Effects have a minus sign here. This is one part of the list.
# Target: human ether-à-go-go-related gene (hERG) potassium channel (human, UniProt Q12809)
# Test: primary screen, population patch clamp on CHO cells stably expressing hERG
# 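Also: peak tail current of the secondary pulse compared with the same well before compound.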
# Sequence of human ether-à-go-go-related gene (hERG) potassium channel (Q12809 whole entry, looked up): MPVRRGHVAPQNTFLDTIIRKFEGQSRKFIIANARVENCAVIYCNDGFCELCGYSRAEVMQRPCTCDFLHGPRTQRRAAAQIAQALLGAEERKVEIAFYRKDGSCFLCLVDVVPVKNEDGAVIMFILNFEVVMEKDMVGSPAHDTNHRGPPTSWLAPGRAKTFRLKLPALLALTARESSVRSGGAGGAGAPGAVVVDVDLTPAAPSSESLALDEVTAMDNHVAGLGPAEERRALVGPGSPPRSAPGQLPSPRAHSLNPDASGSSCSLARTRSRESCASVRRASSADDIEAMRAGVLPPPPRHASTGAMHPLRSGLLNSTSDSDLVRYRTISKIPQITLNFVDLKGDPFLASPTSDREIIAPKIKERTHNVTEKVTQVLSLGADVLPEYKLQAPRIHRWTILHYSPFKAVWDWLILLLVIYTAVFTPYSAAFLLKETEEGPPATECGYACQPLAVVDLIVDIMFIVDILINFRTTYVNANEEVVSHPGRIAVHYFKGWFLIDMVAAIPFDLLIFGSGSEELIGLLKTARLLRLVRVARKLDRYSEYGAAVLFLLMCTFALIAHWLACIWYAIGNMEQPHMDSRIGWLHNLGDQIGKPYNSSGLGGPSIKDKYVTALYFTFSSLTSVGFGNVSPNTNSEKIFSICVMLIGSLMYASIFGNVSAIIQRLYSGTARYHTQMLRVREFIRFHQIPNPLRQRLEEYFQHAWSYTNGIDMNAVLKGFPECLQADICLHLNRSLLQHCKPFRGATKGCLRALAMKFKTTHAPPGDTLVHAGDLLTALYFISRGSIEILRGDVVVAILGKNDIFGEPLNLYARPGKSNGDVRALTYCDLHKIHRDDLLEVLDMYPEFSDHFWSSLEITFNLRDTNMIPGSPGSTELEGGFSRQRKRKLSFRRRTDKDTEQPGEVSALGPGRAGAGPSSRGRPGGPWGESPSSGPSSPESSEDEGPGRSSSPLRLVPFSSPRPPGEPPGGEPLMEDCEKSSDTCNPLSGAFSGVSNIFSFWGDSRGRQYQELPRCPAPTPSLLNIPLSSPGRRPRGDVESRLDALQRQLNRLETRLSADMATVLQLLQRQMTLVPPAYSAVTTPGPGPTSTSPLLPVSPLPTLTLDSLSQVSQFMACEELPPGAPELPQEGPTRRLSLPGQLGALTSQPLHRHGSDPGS
row,Structure (SMILES),"hERG current change (%, negative = inhibition) at 10uM"
1,O=C(NCC(c1cccs1)N1CCOCC1)c1cc(Cl)ccc1[N+](=O)[O-] (stereo not drawn),-16.9%
2,O=C(NNC(=O)c1cccc(-n2cccc2)c1)c1ccc(F)cc1,-2.56%
3,Cc1nc2ccc(C(=O)N/N=C/c3cc([N+](=O)[O-])ccc3O)cc2[nH]1,10.9%
4,O=C(CSc1nc2ccccc2c(=O)[nH]1)N1CCCCC1,0.0245%
5,CC(C)C(NS(=O)(=O)c1ccccc1F)C(=O)N1CCc2ccccc2C1 (stereo not drawn),10.4%
6,COc1ccccc1N(CC(=O)NCCSc1ccc(Cl)cc1)S(C)(=O)=O,-6.87%
7,O=C1CCCN1c1cc(Cl)ccc1Cl,2.17%
8,Cc1cc(C)c2c3c(sc2n1)C1(CCSCC1)C(C#N)=C(N)O3,-18.4%
9,N#CC1=C(N)SC(N)=C(C#N)C1Cc1ccccc1,16.4%
10,O=C(/C=C/c1ccccc1)c1ccc2c(c1)OCCCCO2,-2.95%
11,CCOC(=O)c1ccccc1NC(=O)C1CSC2(C)CCC(=O)N12 (stereo not drawn),-6.29%
12,CCOC(=O)c1[nH]c2cc3c(cc2c1NC(=O)CN1CC(C)CC(C)C1)OCO3 (stereo not drawn),8.83%
13,CC(c1ccccc1)c1nnc(NC(=O)Nc2ccccc2F)s1 (stereo not drawn),15.5%
14,COc1ccc2c(CC(=O)OCC(=O)N3CCc4ccccc43)coc2c1,2.48%
15,CCOc1ccc(-c2nnc(SCC(=O)NC3CC3)o2)cc1,-4.15%
16,COc1ccccc1C(=O)N1CCN=C1SCc1cccnc1,7.45%
17,CN(CC(=O)Nc1cccc(F)c1)C(=O)CC1CCCCC1,11.5%
18,CCC(CC)NCc1ccc(OC)cc1OC,-20.4%
19,COc1cc(NC(=S)NC(=O)c2ccc(C)cc2C)ccc1NC(=O)c1cccs1,9.29%
20,Nc1c(Cl)cc(C2=NCCn3nc4ccccc4c32)cc1Cl,-11.3%
21,COc1cccc(N2CCN(S(=O)(=O)c3cccc4cccnc34)CC2)c1,15.5%
22,CCc1cc(=O)oc2c(C)c(OCC(=O)N3CCC[C@@H]3C(=O)O)ccc12,15.6%

row,Structure (SMILES),"hERG current change (%, negative = inhibition) at 10uM"
1,NC(=O)CCCn1c(C(=O)c2cc(Cl)c(N)c(Cl)c2)c2ccc([N+](=O)[O-])cc2[n+]1[O-],-30.9%
2,COc1cc(OC)cc(C(=O)N2CCCC(c3nc(-c4ccc(C)o4)no3)C2)c1 (stereo not drawn),-9.35%
3,FC(F)(F)c1cc(-c2ccco2)nc(-n2nnc3ccccc32)n1,-3.29%
4,C=CCNc1ncnc2c1ncn2C1OC(CO)C(O)C1O (stereo not drawn),16.9%
5,Cc1ccccc1OCc1ccc(C(=O)N2CC(C)OC(C)C2)o1 (stereo not drawn),-3.9%
6,COc1ccc(Cc2nc(C(=O)Nc3ccc(Cl)cc3)cs2)cc1,-42.8%
7,CCC(=O)c1ccc(OCC(O)Cn2cnc3ccccc32)cc1 (stereo not drawn),-23.6%
8,Nc1ccccc1N=Cc1ccc(-c2cccc(Cl)c2)o1,10.5%
9,O=C(NNC(=O)C1C2C=CC(C2)C1C(=O)O)c1cc(Cl)ccc1O (stereo not drawn),14.5%
10,COc1ccc(NC(=O)CN2C(=O)C(c3ccccc3)=NC23CCCCCC3)cc1OC,-2.36%
11,COc1cc(-c2csc(C)n2)ccc1O,8.67%
12,CC(=O)n1cc([C@@H]2C=C(C(=O)Nc3ccccc3)O[C@H](OCCCCO)C2)c2ccccc21,-54.5%
13,COc1ccc(O)c(C(=O)c2cnc3c(c2)CN(C)C(=O)N3)c1,5.34%
14,O=C(COc1ccccc1)NNC(=O)c1ccc(Cl)cc1,6.08%
15,CC(=O)n1cc(/C=C2/N=C(c3ccccc3)OC2=O)c2ccccc21,7.37%
16,COc1ccc([N+](=O)[O-])cc1NC(=O)C(C)OC(=O)c1ccccc1C(=O)c1ccc(Cl)cc1 (stereo not drawn),1.68%
17,COc1ccccc1N1CCN(C(=O)Oc2ccccc2)CC1,1.61%
18,CC(C)Cn1c(N)c(C(=O)COC(=O)c2ccc(F)cc2)c(=O)n(C)c1=O,17.1%
19,Cc1cccc(C)c1NC(=O)c1ccc([N+](=O)[O-])s1,-8.67%
20,CC1(C(=O)OCC(=O)NNC(=O)COc2ccc(Cl)cc2)CC1(Cl)Cl (stereo not drawn),-20.3%
21,NS(=O)(=O)c1ccc(CCNC(=O)CSc2ccc(Cl)cc2)cc1,-8.77%
22,COc1ccc(CN2CCN(C(=O)COc3ccc4ccccc4c3)CC2)c(OC)c1,-52.6%

row,Structure (SMILES),"hERG current change (%, negative = inhibition) at 10uM"
1,COc1ccc(-c2c([C@H]3[C@H]4C=CC[C@@H](C)[C@@H]4C(=O)N3Cc3ccccc3)ccc3ccccc23)cc1,20.8%
2,Cn1nc(Cc2n[nH]c(=S)n2C)c2ccccc2c1=O,23.9%
3,O=C(NC1CCCc2ccccc21)c1cc(S(=O)(=O)N2CCOCC2)ccc1F (stereo not drawn),6.48%
4,COc1ccc(CCNC(=O)CN2C(=O)COc3ccc(S(=O)(=O)N4CCOCC4)cc32)cc1OC,16.6%
5,Cc1ccccc1CN1CCN(Cc2ccccc2)CC1.O=C(O)C(=O)O,-7.72%
6,CCCCN(CCCC)CCNC(=O)c1cn(C)c2ccc(S(=O)(=O)N(C)C3CCCCC3)cc2c1=O,-76.7%
7,O=C1NCC(c2ccccc2)C1C(=O)N/N=C\c1ccc(-c2ccc(Cl)c(Cl)c2)o1 (stereo not drawn),20.9%
8,COc1cc2c(cc1OC)C(CC(=O)O)N(C(=O)CC1CCCC1)CC2 (stereo not drawn),20.6%
9,Cn1nnnc1SCC(=O)NCc1cccc(C(=O)O)c1,-9.75%
10,CCCCCc1ccc(-c2cn(CCc3c[nH]c4ccccc34)nn2)cc1,-3.24%
11,COc1ccc(NC(=O)c2cc(Br)c(Br)s2)cn1,-9.05%
12,Cc1cccc(N(NC(=O)C(C)(C)O)C(=O)c2ccccc2)c1,8.44%
13,O=C(Nc1ccccc1)N1CCN(Cc2ccc3c(c2)OCO3)CC1,-26.1%
14,CC(C)Cn1c(N)c(C(=O)COC(=O)C2CC(=O)N(c3ccc4c(c3)OCCO4)C2)c(=O)n(C)c1=O (stereo not drawn),-52.6%
15,COc1ccc(NC(=O)CSc2nnc(-c3cccnc3)s2)cc1,-5.25%
16,COCC(=O)OCC(=O)Nc1ccccc1-c1ccccc1,39.1%
17,CCCn1c(SCC(=O)NC)nc2sc3c(c2c1=O)CCC3,-11.4%
18,COC(=O)C1CCCCN1C(=O)c1ccc2oc(Cc3ccccc3)nc2c1 (stereo not drawn),-2.29%
19,Cc1cc(NC(=O)CSCC(=O)Nc2cc(C(F)(F)F)ccc2N2CCOCC2)no1,5.68%
20,CC(C)C(NC(=O)Cc1ccccc1[N+](=O)[O-])C(C)C,-4.45%
21,C=C(C)CN(CC)C(=O)CCc1nnc(CCc2c[nH]c3ccccc23)o1,2.13%
22,CCOC(=O)C1(O)CC(C)=NN1C(=O)c1cccc(Cl)c1 (stereo not drawn),11.5%

row,Structure (SMILES),"hERG current change (%, negative = inhibition) at 10uM"
1,Cc1cc(C)c(C)c(S(=O)(=O)Nc2ccc(C(N)=O)cc2)c1C,10.3%
2,CC(C)C(NC(=O)C1CCC(C(C)(C)C)CC1)C(=O)NCc1cccnc1 (stereo not drawn),-12.2%
3,O=C(O)CC(CC(=O)Nc1ccc(N2CCOCC2)cc1)c1ccccc1 (stereo not drawn),12.7%
4,CC(C)(C)c1ccc(NC(=O)CNC2CCCc3ccccc32)cc1.Cl (stereo not drawn),2.24%
5,Cc1nnc(Sc2cc(C(=O)NCc3ccco3)c3ccccc3n2)s1,-33.6%
6,Cc1cc(C)nc(Oc2ccc(Br)cc2)n1,9.09%
7,COc1ccc(C)cc1Cn1c(S(C)(=O)=O)nc2ccccc21,-9.64%
8,COc1cc(-c2nc(-c3ccccc3)c(-c3cc([N+](=O)[O-])ccc3C)[nH]2)cc(OC)c1OC,1.42%
9,Nc1ccc(-c2c3ccccc3nc3ccccc23)cc1,8%
10,CS(=O)(=O)N(Cc1ccc(Cl)cc1)c1ccc(C(=O)NCC2CCCO2)cc1 (stereo not drawn),-46.7%
11,CC12CN(C(=O)c3ccccc3)C3(C#N)CC1CCC23C (stereo not drawn),0.751%
12,Cc1ccc(N=Nc2ccc(C)cc2NC(=O)Nc2ccccc2F)cc1,17.3%
13,COc1ccc(NC2=CC(c3ccccc3)N(c3ccc(OC)cc3)C2=O)cc1 (stereo not drawn),11.2%
14,Cc1ccccc1OCCC(=O)N1CCN(S(=O)(=O)c2ccc(F)cc2)CC1,-13.7%
15,CC(=O)c1sc(-c2ccc(Cl)cc2)nc1C,12.7%
16,CCN(CC)C(=O)/C(=C\c1ccncc1)NC(=O)c1ccccc1,-5.95%
17,Cc1cc(C(=O)COC(=O)c2ccc(Br)o2)c(C)n1C,13.9%
18,COc1ccc(NC(=O)CSc2nc3ncccc3[nH]2)cc1OC,9.75%
19,COc1ccc(C)cc1NC(=O)CSc1nnc(-c2cc(C)[nH]n2)n1N,2.92%
20,Cc1nc2c(C(=O)NCCc3ccccc3Cl)c[nH]n2c(=O)c1Cl,3.14%
21,CCOC(=O)[C@H]1[C@H]2COc3ccc(C)cc3[C@@H]2N2C(=O)c3cc(F)ccc3NC(=O)[C@@]12C,-18.5%
